Results from PubChem BioAssay AID488969 (Vanderbilt High Throughput Screening Facility, 2010).
Over roughly 110,000 compounds, “z-score” has its median near -0.1; the highest 2% begin near 2. The list shows a part of the results.

molecular target: Metabotropic glutamate receptor 8 (Rattus norvegicus) (UniProt P70579); experiment: rat mGluR8 modulators via GIRK flux, primary screen, cell-based, thallium flux, HTS (AID 488969); conditions: HEK293 rat mGluR8, GIRK (G protein-gated inwardly rectifying potassium channel) thallium flux, FluoZin2; at 10 µM; stronger effect = higher value; submaximal glutamate (EC20) added with thallium
UniProt P70579, sequence (P70579 whole entry, looked up): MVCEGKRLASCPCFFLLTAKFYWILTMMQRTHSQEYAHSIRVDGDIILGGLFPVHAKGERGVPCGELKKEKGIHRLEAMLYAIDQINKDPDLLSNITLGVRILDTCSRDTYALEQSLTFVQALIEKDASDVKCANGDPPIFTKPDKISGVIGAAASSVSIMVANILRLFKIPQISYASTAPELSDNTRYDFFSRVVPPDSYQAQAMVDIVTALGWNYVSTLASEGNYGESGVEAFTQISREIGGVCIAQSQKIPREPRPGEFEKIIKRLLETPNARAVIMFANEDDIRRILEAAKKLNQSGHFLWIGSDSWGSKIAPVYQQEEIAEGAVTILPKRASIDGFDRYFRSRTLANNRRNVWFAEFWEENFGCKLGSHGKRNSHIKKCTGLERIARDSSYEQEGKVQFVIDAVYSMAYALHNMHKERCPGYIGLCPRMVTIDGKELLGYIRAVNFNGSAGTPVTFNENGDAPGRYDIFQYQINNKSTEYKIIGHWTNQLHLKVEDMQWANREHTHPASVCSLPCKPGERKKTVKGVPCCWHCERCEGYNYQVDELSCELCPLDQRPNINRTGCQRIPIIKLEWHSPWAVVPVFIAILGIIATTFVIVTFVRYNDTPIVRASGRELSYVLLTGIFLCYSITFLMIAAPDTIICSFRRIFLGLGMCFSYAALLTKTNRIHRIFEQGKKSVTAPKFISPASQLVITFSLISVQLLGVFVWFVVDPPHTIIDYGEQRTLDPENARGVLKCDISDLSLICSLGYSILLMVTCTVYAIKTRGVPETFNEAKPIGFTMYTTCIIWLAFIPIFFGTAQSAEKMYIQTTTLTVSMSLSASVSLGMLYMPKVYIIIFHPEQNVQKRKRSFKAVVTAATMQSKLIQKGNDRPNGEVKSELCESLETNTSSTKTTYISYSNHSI

| Compound | z-score |
| --- | --- |
| CCOC(=O)c1c(-c2ccc(OC)cc2)csc1NC(=O)CSc1ncnc2sccc12 | -0.0957 |
| CC(=O)Nc1ccc(S(=O)(=O)N2CCCc3ccccc32)cc1 | 0.436 |
| COc1ccc(-c2nc(N3CCCC3)[nH]c(=O)c2C#N)cc1 | 0.353 |
| CCOC(=O)c1c(NC(=O)CSc2nnc(C)s2)sc2c1CCC(C)C2 (stereo unspecified) | -0.619 |
| COc1ccc(C2CC(c3ccc(Br)cc3)=NN2C(=O)c2cccnc2)cc1 (stereo unspecified) | -0.107 |
| Cc1oc(-c2ccccc2)cc1C(=O)NC(Cc1c[nH]c2ccccc12)C(=O)O (stereo unspecified) | -0.00352 |
| c1ccc(C2Nc3ccccc3Oc3ccccc32)cc1 (stereo unspecified) | -0.102 |
| COc1ccc(CNC(=O)Cn2cc([N+](=O)[O-])nc2C)cc1 | -0.0622 |
| CCOc1ccccc1CNCCN1CCOCC1 | 0.261 |
| Cc1cccc(NC(=O)c2cc(NC(=O)c3ccco3)ccc2N2CCCCC2)c1 | -0.0292 |
| COc1cc(CNCCSc2nnnn2C)cc(Br)c1OCc1ccccc1F | 0.913 |
| Cc1onc(-c2c(F)cccc2Cl)c1C(=O)NCCCN1CCOCC1 | -0.318 |
| CCn1cc(C2=NOC(C(=O)Nc3ccccc3C(=O)OC)C2)c(C)n1 (stereo unspecified) | -0.574 |
| CCOc1cc(CNCCO)cc(Br)c1OCc1ccccc1Cl | 0.439 |
| Cc1nc2c(n1C1CCCCC1)C(=O)c1ccccc1C2=O | -0.358 |
| CC[n+]1ccc(C[n+]2ccccc2)c2ccccc21 | -0.112 |
| O=C(COc1nc2ccccc2nc1N1CCOCC1)Nc1cccc(S(=O)(=O)N2CCCCC2)c1 | 0.0921 |
| CCC1(CC)C(=O)NC(=O)NC1=NCCc1ccc(O)cc1 | -0.138 |
| CCOC(=O)c1cc(OC(=O)c2cccnc2)n(-c2ccccc2)n1 | -0.265 |

| Compound | z-score |
| --- | --- |
| O=[N+]([O-])c1cccc(S(=O)(=O)NCC2CCCO2)c1 (stereo unspecified) | 0.197 |
| CCC(C)OC(=O)C1=C(C)NC(=O)CC1c1ccccc1OC (stereo unspecified) | -0.413 |
| O=C1Cn2c(nc3ccccc32)N1c1cccc(C(F)(F)F)c1 | 1 |
| CN1C(=O)c2ccc(N(C)C)cc2C1=O | 0.32 |
| CCC(NC(=O)C1CCC1)c1ccc(C)cc1 (stereo unspecified) | -0.0362 |
| Cc1cc(C)nc(SCCS(=O)Cc2ccc(Cl)cc2)n1 (stereo unspecified) | 0.424 |
| O=S(=O)(c1ccccc1)N1CCN(c2ncccn2)CC1 | -0.134 |
| Cc1ccc(CN(C)C(=O)c2ccccc2Oc2ccccc2)o1 | -0.179 |
| CCOC(=O)CCC(=O)c1c(C)oc2ccc(OC)cc12 | -0.286 |
| COc1ccc(/C=C/C(=O)c2ccc3c4c(cccc24)CC3)cc1 | 0.191 |
| C(=N\Nc1nc(-c2ccccc2)cs1)/c1cccs1 | -0.0376 |
| CCOc1ccc(NC(=O)CNC(=O)COc2ccccc2)cc1 | 1.77 |
| O=C(NC1CCS(=O)(=O)C1)Oc1ccc(Cl)cc1 (stereo unspecified) | -0.219 |
| O=C(CCN1C(=O)C2CC=C(Cl)CC2C1=O)N1CCCCC1 (stereo unspecified) | -0.175 |
| COc1ccc(OC)c(C2C(C(C)=O)=C(O)C(=O)N2CCN2CCOCC2)c1 (stereo unspecified) | -0.0658 |
| CCn1ncc(Br)c1C(=O)NC(C)c1ccccc1 (stereo unspecified) | 0.000248 |
| Cc1cc(Oc2ccccc2)nc(-c2ccccc2O)n1 | 0.13 |
| CCOC(=O)C1CCN(C(=O)CCNC(=O)Cn2ccc3ccccc3c2=O)CC1 | 0.0162 |
| COc1ccc(CCNC(=O)CCNC(=O)c2ccc(Cl)cc2)cc1OC | -0.0322 |

| Compound | z-score |
| --- | --- |
| C=CCn1c(SCC(=O)N2CCCC2)nc2cc(C(=O)NCC3CCCO3)ccc2c1=O (stereo unspecified) | -0.372 |
| COc1ccc(CCNC(=O)C/C(C)=N/NC(=O)c2ccc(N)cc2)cc1OC | -0.213 |
| CCc1nc(N2CCCCC2C)c2oc3ccccc3c2n1 (stereo unspecified) | -0.175 |
| CN(Cc1ccco1)C(=O)c1ccc(N2CCCC2=O)cc1 | -0.119 |
| COc1cc(CNn2cn[nH]c2=S)cc(Cl)c1OCc1ccc(F)cc1 | -0.0761 |
| O=C(CCn1c(=O)sc2ccccc21)Nc1nccs1 | -0.657 |
| CN1C(=O)OC(C)(CCc2ccccc2)C1(C)O (stereo unspecified) | -0.0618 |
| Cc1cc(C)cc(NC(=O)c2ccc(CNc3c(N4CCOCC4)c(=O)c3=O)cc2)c1 | -0.157 |
| O=C(O)CCn1cc(/C=C/C(=O)c2ccc(Cl)cc2)c(-c2ccc(Br)cc2)n1 | -0.772 |
| COc1ccc(CNC(=O)c2cnc3cc(C)ccn3c2=O)cc1 | -0.0151 |
| NC(=O)CSc1nnc(-c2ccccc2Br)n1-c1cccc(C(F)(F)F)c1 | -0.416 |
| COc1ccc(-n2c(C)c(C(C)=O)c(C(C)=O)c2C)cc1OC | 0.505 |
| CCCC/C(O)=C/c1nc2ccccc2[nH]c1=O | 0.252 |
| Fc1ccc(Cl)cc1/C=N/n1cnnc1SCc1ccccc1 | -0.0925 |
| COC(=O)CNC(=O)C(C)(C)Oc1ccc(Cl)cc1 | -0.255 |
| Cc1cc(N2CCOCC2)cc(C)[n+]1[O-] | 0.665 |
| COc1cccc(N2CC34C=CC(O3)C(C(=O)O)C4C2=O)c1 (stereo unspecified) | 0.357 |
| Cc1cc(C)nc(NC(=O)c2ccc(OC(C)C)cc2)n1 | 0.289 |
